± gives the standard deviation of the averaged measurements. Restriction of a single-cycle SIVsab GFP reporter by TRIM5α v1-loop variants in CRFK cells. Human variants: read share among cells still uninfected after two challenges over input, higher = gained restriction. Rhesus variants: share among infected cells over input, higher = lost restriction. Reporter dose not given per row. No active / inactive call per row; the paper calls a change when both replicates lie above its controls (mean + 2 SD of stop or wild-type variants, or the top frameshift score). Residues outside the varied loop are taken from Swiss-Prot. The paper reads the human single-substitution scores as noise; they and the rhesus combinations repeat poorly (rank correlation 0.3 to 0.4), indel scores repeat only for the top variants, rhesus substitutions well (0.9).

Results on eight sequences are retold here after the supplement of paper PMC12230231.

The first series has as its system SIVsab (simian immunodeficiency virus of sabaeus monkeys), single-cycle GFP reporter, in CRFK cells. Nature of the series: enrichment among uninfected cells over input (fold); higher = stronger restriction. Particulars: library: human / rhesus combinations. The protocol:
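Pools of CRFK cells expressing variants of the TRIM5α v1 loop were challenged with the single-cycle reporter, sorted by GFP and sequenced; mean of two replicates.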
Turning to “MASGILVNVKEEVTCPICLELLTQPLSLDCGHSFCQACLTANHKKSMLDKGESSCPVCRISYQPENIRPNRHVANIVEKLREVKLSPEGQKVDHCARHGEKLLLFCQEDGKVICWLCERSQEHRGHHTFLTEEVAREYQVKLQAALEMLRQKQQEAEELEADIREEKASWKTQIQYDKTNVLADFEQLRDILDWEESNELQNLEKEEEDILKSLTNSETEMVQQTQSLRELISDLEHRLQGSVMELLQGVDGVIKRTENVTLKKPETFPKNQRRVFRAPDLKGMLEVFRELTDVRRYWVDVTVAPNNISCAVISEDKRQVSSPKPQIIYQAPGTLFPSFVNFNYCTGILGSQSITSGKHYWEVDVSKKTAWILGVCAGFQPDAMCNIEKNENYQPKYGYWVIGLEEGVKCSAFQDSSFHTPSVPFIVPLSVIICPDRVGVFLDYEACTVSFFNITNHGFLIYKFSHCSFSQPVFPYLNPRKCGVPMTLCSPSS [human TRIM5α, 330-340 = QAPGTLFPSFV]”, the enrichment worked out at 0.187 ± 0.23. For the sequence “MASGILVNVKEEVTCPICLELLTQPLSLDCGHSFCQACLTANHKKSMLDKGESSCPVCRISYQPENIRPNRHVANIVEKLREVKLSPEGQKVDHCARHGEKLLLFCQEDGKVICWLCERSQEHRGHHTFLTEEVAREYQVKLQAALEMLRQKQQEAEELEADIREEKASWKTQIQYDKTNVLADFEQLRDILDWEESNELQNLEKEEEDILKSLTNSETEMVQQTQSLRELISDLEHRLQGSVMELLQGVDGVIKRTENVTLKKPETFPKNQRRVFRAPDLKGMLEVFRELTDVRRYWVDVTVAPNNISCAVISEDKRQVSSPKPQIIYQAPGTLFPSLVNFNYCTGILGSQSITSGKHYWEVDVSKKTAWILGVCAGFQPDAMCNIEKNENYQPKYGYWVIGLEEGVKCSAFQDSSFHTPSVPFIVPLSVIICPDRVGVFLDYEACTVSFFNITNHGFLIYKFSHCSFSQPVFPYLNPRKCGVPMTLCSPSS [human TRIM5α, 330-340 = QAPGTLFPSLV]”, the enrichment is 0.0653 ± 0.085. The same measure, in the same setting: under “MASGILVNVKEEVTCPICLELLTQPLSLDCGHSFCQACLTANHKKSMLDKGESSCPVCRISYQPENIRPNRHVANIVEKLREVKLSPEGQKVDHCARHGEKLLLFCQEDGKVICWLCERSQEHRGHHTFLTEEVAREYQVKLQAALEMLRQKQQEAEELEADIREEKASWKTQIQYDKTNVLADFEQLRDILDWEESNELQNLEKEEEDILKSLTNSETEMVQQTQSLRELISDLEHRLQGSVMELLQGVDGVIKRTENVTLKKPETFPKNQRRVFRAPDLKGMLEVFRELTDVRRYWVDVTVAPNNISCAVISEDKRQVSSPKPQIIYQAPGTLFPTLVNFNYCTGILGSQSITSGKHYWEVDVSKKTAWILGVCAGFQPDAMCNIEKNENYQPKYGYWVIGLEEGVKCSAFQDSSFHTPSVPFIVPLSVIICPDRVGVFLDYEACTVSFFNITNHGFLIYKFSHCSFSQPVFPYLNPRKCGVPMTLCSPSS [human TRIM5α, 330-340 = QAPGTLFPTLV]” stands 0.00877 ± 0.0069; under “MASGILVNVKEEVTCPICLELLTQPLSLDCGHSFCQACLTANHKKSMLDKGESSCPVCRISYQPENIRPNRHVANIVEKLREVKLSPEGQKVDHCARHGEKLLLFCQEDGKVICWLCERSQEHRGHHTFLTEEVAREYQVKLQAALEMLRQKQQEAEELEADIREEKASWKTQIQYDKTNVLADFEQLRDILDWEESNELQNLEKEEEDILKSLTNSETEMVQQTQSLRELISDLEHRLQGSVMELLQGVDGVIKRTENVTLKKPETFPKNQRRVFRAPDLKGMLEVFRELTDVRRYWVDVTVAPNNISCAVISEDKRQVSSPKPQIIYQAPGTLFQSFVNFNYCTGILGSQSITSGKHYWEVDVSKKTAWILGVCAGFQPDAMCNIEKNENYQPKYGYWVIGLEEGVKCSAFQDSSFHTPSVPFIVPLSVIICPDRVGVFLDYEACTVSFFNITNHGFLIYKFSHCSFSQPVFPYLNPRKCGVPMTLCSPSS [human TRIM5α, 330-340 = QAPGTLFQSFV]”, 0.261 ± 0.36; under “MASGILVNVKEEVTCPICLELLTQPLSLDCGHSFCQACLTANHKKSMLDKGESSCPVCRISYQPENIRPNRHVANIVEKLREVKLSPEGQKVDHCARHGEKLLLFCQEDGKVICWLCERSQEHRGHHTFLTEEVAREYQVKLQAALEMLRQKQQEAEELEADIREEKASWKTQIQYDKTNVLADFEQLRDILDWEESNELQNLEKEEEDILKSLTNSETEMVQQTQSLRELISDLEHRLQGSVMELLQGVDGVIKRTENVTLKKPETFPKNQRRVFRAPDLKGMLEVFRELTDVRRYWVDVTVAPNNISCAVISEDKRQVSSPKPQIIYQAPGTLFQTLVNFNYCTGILGSQSITSGKHYWEVDVSKKTAWILGVCAGFQPDAMCNIEKNENYQPKYGYWVIGLEEGVKCSAFQDSSFHTPSVPFIVPLSVIICPDRVGVFLDYEACTVSFFNITNHGFLIYKFSHCSFSQPVFPYLNPRKCGVPMTLCSPSS [human TRIM5α, 330-340 = QAPGTLFQTLV]”, 0.0032 ± 0.0006. Same read-out and setting: under “MASGILVNVKEEVTCPICLELLTQPLSLDCGHSFCQACLTANHKKSMLDKGESSCPVCRISYQPENIRPNRHVANIVEKLREVKLSPEGQKVDHCARHGEKLLLFCQEDGKVICWLCERSQEHRGHHTFLTEEVAREYQVKLQAALEMLRQKQQEAEELEADIREEKASWKTQIQYDKTNVLADFEQLRDILDWEESNELQNLEKEEEDILKSLTNSETEMVQQTQSLRELISDLEHRLQGSVMELLQGVDGVIKRTENVTLKKPETFPKNQRRVFRAPDLKGMLEVFRELTDVRRYWVDVTVAPNNISCAVISEDKRQVSSPKPQIIYQAPGTLFTFPSFTNFNYCTGILGSQSITSGKHYWEVDVSKKTAWILGVCAGFQPDAMCNIEKNENYQPKYGYWVIGLEEGVKCSAFQDSSFHTPSVPFIVPLSVIICPDRVGVFLDYEACTVSFFNITNHGFLIYKFSHCSFSQPVFPYLNPRKCGVPMTLCSPSS [human TRIM5α, 330-340 = QAPGTLFTFPSFT]” stands 37 ± 8.

The same series, now with this note: library: insertions and deletions.
For the sequence “MASGILVNVKEEVTCPICLELLTQPLSLDCGHSFCQACLTANHKKSMLDKGESSCPVCRISYQPENIRPNRHVANIVEKLREVKLSPEGQKVDHCARHGEKLLLFCQEDGKVICWLCERSQEHRGHHTFLTEEVAREYQVKLQAALEMLRQKQQEAEELEADIREEKASWKTQIQYDKTNVLADFEQLRDILDWEESNELQNLEKEEEDILKSLTNSETEMVQQTQSLRELISDLEHRLQGSVMELLQGVDGVIKRTENVTLKKPETFPKNQRRVFRAPDLKGMLEVFRELTDVRRYWVDVTVAPNNISCAVISEDKRQVSSPKPQIIYKPQIIYGARGTRYQTFVNFNYCTGILGSQSITSGKHYWEVDVSKKTAWILGVCAGFQPDAMCNIEKNENYQPKYGYWVIGLEEGVKCSAFQDSSFHTPSVPFIVPLSVIICPDRVGVFLDYEACTVSFFNITNHGFLIYKFSHCSFSQPVFPYLNPRKCGVPMTLCSPSS [human TRIM5α, 6-codon duplication at 324]”, the enrichment is 0.769 ± 0.16. As for “MASGILVNVKEEVTCPICLELLTQPLSLDCGHSFCQACLTANHKKSMLDKGESSCPVCRISYQPENIRPNRHVANIVEKLREVKLSPEGQKVDHCARHGEKLLLFCQEDGKVICWLCERSQEHRGHHTFLTEEVAREYQVKLQAALEMLRQKQQEAEELEADIREEKASWKTQIQYDKTNVLADFEQLRDILDWEESNELQNLEKEEEDILKSLTNSETEMVQQTQSLRELISDLEHRLQGSVMELLQGVDGVIKRTENVTLKKPETFPKNQRRVFRAPDLKGMLEVFRELTDVRRYWVDVTVAPNNISCAVISEDKRQVSSPKPQIIYPQIIYGARGTRYQTFVNFNYCTGILGSQSITSGKHYWEVDVSKKTAWILGVCAGFQPDAMCNIEKNENYQPKYGYWVIGLEEGVKCSAFQDSSFHTPSVPFIVPLSVIICPDRVGVFLDYEACTVSFFNITNHGFLIYKFSHCSFSQPVFPYLNPRKCGVPMTLCSPSS [human TRIM5α, 5-codon duplication at 325]”, the enrichment came to 0.829 ± 0.44.
